Data taken from PubChem BioAssay AID686979 (National Center for Advancing Translational Sciences (NCATS), 2013).
Values joined by “and” are separate entries in the source; they are usually repeats but may differ in a detail not shown here. Identical values can stand only once. The campaign covered roughly 420,000 compounds. About 50,000 (12%) were called active. Inconclusive results, whose numbers are uncertain, are shown with a selection of clear calls. Calls follow the shape of the dose curve; as a rule, active = well fitted inhibition curve with a large enough effect; inconclusive = small, poorly fitted or top-dose-only effect; inactive = flat fitted curve, though single readings scatter. Potencies beside an inconclusive call are fits to weak or partial responses and may not hold up.

Experiment: qHTS for Inhibitors of human tyrosyl-DNA phosphodiesterase 1 (TDP1): qHTS in cells in presence of CPT; also: nearly all actives have a fitted effect of over 55% in size
Conditions: chicken DT40 Tdp1-/-;hTDP1 cells + 20 nM CPT, ATP luminescence, 48 h; activity change, negative = growth inhibition: at 46.2 µM (top of the series) unless noted
How it was run: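 Chicken DT40 Tdp1-/- cells stably complemented with human TDP1 were seeded at 400 cells/well in medium containing 20 nM camptothecin, exposed to pin-transferred compounds, and grown at 37 °C for at least 48 hr. Viability was read as ATP luminescence.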
% is scaled to controls: 0 for no effect and ±100 for the full control effect; potency is read from the fitted curve at half-maximal effect; tags tell the direction and shape of the fitted curve.

Row | SMILES | activity change, negative = growth inhibition | Potency
1 | CC(C)OC(=O)c1ccc(COC(=O)c2cnccn2)cc1 | inactive: 6.89% | 
2 | Cc1c([N+](=O)[O-])cc(N2C(=O)C=CC2=O)cc1[N+](=O)[O-] |  | active: 0.731 µM
3 | CCC1CSC(Nc2ccc(C(=O)/C=C/c3cccc(C)c3)cc2)=N1 (stereo not drawn) |  | active: 16.4 µM
4 | CC(C)(CCC(=S)N1CCOCC1)c1ccccc1 | inactive: -20.9% | 
5 | CCOC(=O)C1=CCN(S(=O)(=O)c2ccccc2C)C1c1ccc(C)cc1 (stereo not drawn) |  | inconclusive: 29.1 µM [inhibitor, single point]
6 | COc1ccc(N2CCN(C(=O)c3c4c(nc5ccccc35)C(=O)N(C3CCCCC3)C4)CC2)cc1 |  | active: 14.6 µM
7 | CCC(NC(=O)c1oc2ccccc2c1COC)c1ccc(OC)cc1 (stereo not drawn) |  | inconclusive: 29.1 µM [inhibitor, single point]
8 | CN1C(=O)c2ccccc2C(C(=O)NCCCN2CCCC2=O)C1c1c[nH]c2ccccc12 (stereo not drawn) |  | inconclusive: 18.4 µM [inhibitor, single point]
9 | COc1cccc(-c2cc(C(=O)N3CCN(c4ncccn4)CC3)c3ccccc3n2)c1 |  | inconclusive: 29.1 µM [inhibitor, single point]
10 | CN(CC(=O)Nc1cccc(F)c1)C(=O)CCc1nc2ccccc2c(=O)[nH]1 |  | inconclusive: 29.1 µM [inhibitor, single point]
11 | CCOc1ccc(NC(=O)CSC2=NN3CCCC(=O)N=C3S2)cc1 |  | inconclusive: 23.1 µM [inhibitor, single point]
12 | Cc1nc(SCC(=O)NCC2CCCO2)c2c(C)c(C)sc2n1 (stereo not drawn) | inactive: 5.74% | 
13 | CCOc1[nH]n(-c2ccc(Cl)cc2)c(=O)c1C=Nc1ccc(O)cc1 |  | active: 5.8 µM
14 | CC(=O)N1CCc2cc(S(=O)(=O)NCCC(=O)NCCc3ccc(C)cc3)ccc21 |  | active: 29.1 µM
15 | Cc1cccc2cc(C3CC(c4cccs4)=NN3S(C)(=O)=O)c(Cl)nc12 (stereo not drawn) |  | inconclusive: 20.6 µM [inhibitor, single point]
16 | O=C(O)Cn1c(-c2ccccc2)nc2ccccc21 | inactive: -18.1% | 
17 | O=C(Nc1ccc2nc(SCC(=O)N3CCCC3)sc2c1)c1cccc(F)c1 |  | active: 20.6 µM
18 | CC(C)c1ccc(/C=C/C(=O)NC2CCCCC2)cc1 |  | inconclusive: 29.1 µM [inhibitor, single point]
19 | CC(C)(C)OC(=O)NCCc1nnc(SCc2ccccc2)o1 |  | inconclusive: 16.4 µM [inhibitor, partial curve]
20 | COc1ccc(C2=Nc3ccccc3N(C(=O)c3ccc4c(c3)OCO4)C2C(=O)Nc2c(C)cccc2C)cc1 (stereo not drawn) |  | inconclusive: 20.6 µM [inhibitor, single point]
21 | CC[C@@]12C(=O)N(c3cccc(F)c3)C(=O)N1[C@H](c1ccc(Cl)cc1)[C@@H]1C(=O)N(C3CCCCC3)C(=O)[C@@H]12 |  | inconclusive: 18.4 µM [inhibitor, single point]
22 | COC(=O)c1ccc(CNCC(=O)Nc2ccc(C(=O)OC)cc2)cc1 |  | inconclusive: 32.6 µM [inhibitor, partial curve, poor fit]
23 | COC(=O)c1c(-c2cccs2)csc1NC(=O)c1ccc(C(C)(C)C)cc1 |  | active: 16.4 µM
24 | CSc1ccc(C2c3[nH]c4ccccc4c3CCN2C(=O)CCC2CCCC2)cc1 (stereo not drawn) |  | inconclusive: 29.1 µM [inhibitor, single point]
25 | CCn1c(O)c2ccc(C(=O)N=NC(=O)c3ccccc3)cc2c1O | inactive: 6.02% | 

Row | SMILES | activity change, negative = growth inhibition | Potency
26 | O=C(CCl)Nc1ccc(N=Nc2ccccc2)cc1 |  | active: 2.91 µM
27 | Cc1cc(C)cc(N(C(=O)c2csnn2)C(C(=O)NC(C)(C)C)c2cccnc2)c1 (stereo not drawn) | inactive: 2.99% | 
28 | COc1cc(-c2cc(=O)c3ccccc3o2)ccc1O |  | inconclusive: 33.5 µM [inhibitor, single point] and inconclusive: 18.4 µM [inhibitor, single point]
29 | CCCCCCCCSc1nnc(/N=C/N(C)C)s1 | inactive: 20.7% | 
30 | NC(CCc1ccccc1)c1csc(Nc2nncc3ccccc23)n1 (stereo not drawn) |  | active: 20.6 µM
31 | COc1ccc(-c2nc3ccccc3o2)cc1NC(=O)c1ccc(OCC(C)C)cc1 |  | inconclusive: 18.4 µM [inhibitor, single point]
32 | Cc1ccc(C2c3c(-c4ccccc4O)n[nH]c3C(=O)N2Cc2ccncc2)cc1 (stereo not drawn) |  | inconclusive: 29.1 µM [inhibitor, single point]
33 | CC(C)(C)CC(C)(C)NC(=S)Nc1ccc2nc(-c3ccccn3)c(-c3ccccn3)nc2c1 |  | inconclusive: 29.1 µM [inhibitor, single point]
34 | CCN(CC)CCN1C(=O)C(O)=C(C(C)=O)C1c1ccccc1[N+](=O)[O-] (stereo not drawn) |  | inconclusive: 29.1 µM [inhibitor, single point]
35 | CC(C)(C)OC(=O)N1CCCC(C(=O)Nc2cccc(C(=O)NCCCc3ccccc3)c2)C1 (stereo not drawn) |  | inconclusive: 29.1 µM [inhibitor, single point]
36 | CC1(C)Cc2nc3sc4c(=O)n(CC(N)=O)cnc4c3cc2CO1 | inactive: -2.9% | 
37 | CC1C(=O)OC2C1CCC1(C)CCC(=O)C(C)C21 (stereo not drawn) | inactive: -29.5% | 
38 | Fc1ccc(CNC(=S)NC2CCCC2)cc1 |  | inconclusive: 29.1 µM [inhibitor, single point]
39 | CCOC(=O)c1c(C)[nH]c(C(=O)N2CCN(c3ccc(OC)cc3)CC2)c1C | inactive: -4.54% | 
40 | CCOC(=O)c1ccc(NC(=O)CS(=O)(=O)c2cn(CC)c3ccccc23)cc1 |  | inconclusive: 20.6 µM [inhibitor, partial curve]
41 | O=C(Oc1ccc(-c2nc(-c3ccccn3)no2)cc1)c1ccccc1 |  | active: 8.2 µM
42 | CCc1ccc(-c2cn3nc(C)c(C)nc3n2)cc1 | inactive: -3.06% | 
43 | CCCCN=C1N/C(=C\c2ccco2)C(=O)N1c1ccccc1 |  | inconclusive: 25.9 µM [inhibitor, partial curve, poor fit]
44 | Cc1sc2ncnc(N3CCC(C(=O)NNC(=O)c4ccc(F)cc4)CC3)c2c1C |  | active: 18.4 µM
45 | COC(=O)N1CCC[C@@]2(CCN(c3ccccn3)C2)C1 | inactive: 2.36% | 
46 | CCn1c(O)c(N=Nc2ccc(Cl)c(C(=O)O)c2)c2ccccc21 |  | inconclusive: 29.1 µM [inhibitor, single point]
47 | CCOC(=O)c1c(-c2ccc(C)cc2C)csc1NC(=O)c1ccccc1Cl |  | inconclusive: 25.9 µM [inhibitor, single point]
48 | O=C(NCCN1CCOCC1)c1ccc2c(c1)N(Cc1ccccc1F)C(=O)CS2 | inactive: -20.1% | 
49 | CCc1nc2c(OCCn3cccc3)cccn2c1N(C)C(=O)c1ccccc1F |  | inconclusive: 16.4 µM [inhibitor, single point]
50 | Clc1ccc(OCc2nc(-c3ccccn3)n[nH]2)cc1 |  | inconclusive: 25.9 µM [inhibitor, single point]

Row | SMILES | activity change, negative = growth inhibition | Potency
51 | OC(COc1ccc2ccccc2c1Br)Cn1cnc(-c2ccccc2)c1 (stereo not drawn) |  | inconclusive: 29.1 µM [inhibitor, single point]
52 | COc1ccc(S(=O)(=O)N2CCN(S(=O)(=O)c3ccc(C(F)(F)F)cc3)CC2)cc1C |  | inconclusive: 10.3 µM [inhibitor, partial curve]
53 | CC12CC3CC(C)(C1)CC(C(O)CN1CCOCC1)(C3)C2 (stereo not drawn) | inactive: 0.483% | 
54 | CCN(CC(=O)Nc1ccccc1OC)C(=O)COc1ccc2ccccc2c1 |  | inconclusive: 29.1 µM [inhibitor, single point]
55 | CC1(Cc2cccc(C(F)(F)F)c2)C(=O)Nc2c(Cl)cccc21 (stereo not drawn) |  | inconclusive: 18.4 µM [inhibitor, single point]
56 | COc1ccc(C2C(=O)N(C3CCCCCC3)CC(=O)N2Cc2ccccc2)cc1 (stereo not drawn) |  | active: 23.1 µM
57 | COC(=O)C1=NNC(C(=O)OC)C1c1ccccc1 (stereo not drawn) | inactive: 13.5% | 
58 | Cc1cccc2cc(C#N)c(SCCN3CCCCC3)nc12 |  | inconclusive: 16.4 µM [inhibitor, partial curve]
59 | Fc1ccc(-c2ccc(CNCc3ccccn3)o2)cc1Cl |  | inconclusive: 29.1 µM [inhibitor, single point]
60 | OCC[C@H]1C[C@H](O)[C@@H](O)[C@@]2(CCc3ccccc3O2)O1 | inactive: -2.54% | 
61 | CCOc1cc(/C=C/c2cc(C(F)(F)F)[nH]c(=O)n2)ccc1O |  | inconclusive: 16.4 µM [inhibitor, single point]
62 | C[N+](C)(C)c1ccc(/C=N/Nc2nc(Cl)c(C#N)c(Cl)c2Cl)cc1 |  | inconclusive: 23.1 µM [inhibitor, single point]
63 | NC(=O)Cn1c(=O)n(CCCCCC(=O)NCc2ccccc2Cl)c(=O)c2sccc21 |  | inconclusive: 32.6 µM [inhibitor, single point]
64 | COCCNC(=O)Cn1cc2c(n1)-c1c(oc(C(=O)N3CCCC3)c1C)CC2 | inactive: -22.6% | 
65 | CCOc1ccc(N=C/C=C/c2ccccc2)c(O)c1 |  | active: 18.4 µM
66 | Cc1cc(C)c2c(=O)n3c(nc2c1)C(Cc1ccccc1)NC(=O)c1cccnc1-3 (stereo not drawn) |  | inconclusive: 29.1 µM [inhibitor, single point]
67 | Oc1c(Cl)cc(Cl)cc1/C=N/Nc1ncc(Br)cn1 |  | active: 1.16 µM
68 | O=C(CSc1ccccc1)NCCCN1CCOCC1 | inactive: 2.07% | 
69 | O=C(Nc1ccccc1)c1ccccc1NS(=O)(=O)c1ccc(Cl)s1 |  | inconclusive: 23.1 µM [inhibitor, single point]
70 | COc1ccccc1Nc1nc(NCC(C)C)nc(N)c1[N+](=O)[O-] |  | inconclusive: 23.1 µM [inhibitor, partial curve]
71 | O=C1CCCc2ccccc2N1Cc1ccc(Cl)cc1 |  | inconclusive: 29.1 µM [inhibitor, single point]
72 | C=CCn1c(SCC(=O)Nc2ccc(F)cc2)nc2ccccc2c1=O | inactive: -23.8% | 
73 | CC(=O)N1CCc2cc(S(=O)(=O)N3c4ccccc4CC3C)ccc21 (stereo not drawn) |  | active: 11.6 µM
